# From the supplement of paper PMC11417369
# The list shows a part of the results.
# System: PfAP2-HC AP2 domain (GST-tagged)
# Assay: gcPBM binding intensity (ln(normalized median fluorescence intensity)); higher = stronger DNA binding
# How it was run: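 GST-tagged P. falciparum DNA-binding domains produced in E. coli were incubated for 1 h on an Agilent 4 × 180k array of primer-extended double-stranded 36-bp intergenic genomic probes with negative controls. Binding intensity is the highest Masliner-normalised natural-log median intensity across replicate spots of either probe orientation, with bound protein detected by Alexa488 anti-GST antibody at 488 nm.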
row,Sequence,gcPBM binding intensity (ln)
1,AAAATTATATATTATTGTACATAAAATTTTGACATA [XGTACX_site4886],9.44
2,ATATATCATATTATAGTGCATTTATAATAATATTAT,9.55
3,TATTATCTGTAGTGTACACATATTATATAGTACTTT [CACACA_site4582],9.8
4,TATTTTTTTTTTATATGTACATAATTTCAAATAAAT [XGTACX_site7747],9.45
5,AAGGATATAACATACACACACACACCGATATATATA [CACACA_site6136],10.6
6,TTTATTTATCTGTATACACACTTTAATGAAAAGTTG [CACACA_site5400],9.64
7,ACAAATCTAAGATAGTGTACATTTATATATATATAT [XGTACX_site8740],9.87
8,TATATATATATATAAGTGCATATAAAAATCGTTCGT,9.81
9,ATATATATATAATAAACACACACATATACATATATG [CACACA_site9145],10.5
10,ATTTTTTTTTTTTTTTTTTTTTTTTGGAGAAAGAGA [CACACA_negctrl_site1119],8.98
11,AATATAAATAAAAACACACACACACCCATATATATA [CACACA_site2267],11.3
12,TTTATATACACACAGAAGAACAGAAATATTATATAT [TGCATGCA_negctrl_site483],9.86
13,ATATATATATATATATGTACATATATGTATACCTTA [XGTACX_site6791],9.78
14,ATAAATACTAGGCACACACACATATATATATATATA [CACACA_site2080],10.4
15,CAATAGTTCTTATGGGTGCAAACCACATATATATAA [GTGCAC_site9606],9.54
16,TATTTATTTTTCTGTTGTACTTTTCAACATGTTACA [XGTACX_site7457],9.64
17,TCTACATATTAATTATGTACGAATTATTATTAGTAA [XGTACX_site6924],9.45
18,TAAATGGGTGTTAATGCACACGATATGTCTATATAT [CACACA_site5321],9.8
19,TATTTATGTTCATATAAACACACGTAAAATTCAAGG [CACACA_site1538],9.62
20,GTCCCTATAAGGGGAACACACATAAATGGATATATA [CACACA_site6612],9.58

row,Sequence,gcPBM binding intensity (ln)
1,CATATTCATAAAAGTTGTACATGCAATTTTTTTTTT [XGTACX_site2261],9.6
2,TCAATAAAAAAAAACGCACACACAAATATATTCCAT [CACACA_site1223],11
3,AAAAATCAATTAGAAGAACACACGTAAATTTTTTTT [CACACA_site2396],9.76
4,TATTAATAAAACCGTTGTACTACATACATAAATATT [XGTACX_site5578],9.61
5,CATTATATGATTTATGTGCACATTCATTTATTTTAA,9.8
6,ATACTATATATATAAGTGCATGTTCATTATACCTAA,9.54
7,ATATATATTATGTGTGTGCACTTTTGTTATTATTAT,10.2
8,ATAACTAAATGATATTGTACAAAATAATTATATATT [XGTACX_site1331],9.73
9,TTAAATTGAATTAGTTAACACACAACTTTTATTTCA [CACACA_site8921],9.65
10,TCTTCATACGACTAAAAAACATTAGACTGATAAAAA [CACACA_negctrl_site628],9.13
11,TATTACACATATTATACACACATATATTATATATAT [CACACA_site4951],10.2
12,TAACATATTTTTAATACACACTTAAAAAAGTACTTA [CACACA_site4875],9.37
13,TATAGCATAAATATGTGTACATATTTATATGATATT [XGTACX_site6333],9.81
14,TATATATAATATTATACACACATATATGCATAATAT [CACACA_site54],9.86
15,TATTTATTTATATAAACACACATAAATATAAATATA [CACACA_site6653],9.45
16,ATATATATTTAAAAAAGTACAGAAGAAAATAACCCA [XGTACX_site642],9.86
17,TTGTGTTTTACATATACATGCAAATTTTTTTTTTTA [TGCATGCA_site303],9.39
18,TTTCTTTTTTCATTTACACACAATAATATAAGAATA [CACACA_site3164],9.52
19,TACACAAATATATATATATATATATATATATATATA [XGTACX_negctrl_site305],10.2
20,AGTTTAGAATTTAATACACACAAAAAAAAAAAATTA [CACACA_site7698],9.8

row,Sequence,gcPBM binding intensity (ln)
1,AACGTTCAATTTAAATGTACAAATGTATTTAAATAT [XGTACX_site315],9.61
2,AAATACAAAATTGTTACACACATATTAAGTATGACA [CACACA_site4421],9.85
3,AGCTCATGCAGGTGTACACAAAAAGAAAAAAAATAA [CACACA_site4828],9.73
4,AAAACAAATATATTAACACACAAACATATAAACAAA [CACACA_site6052],10.4
5,ATAAATAATGTTGACACACACAATAATCTTATTATG [CACACA_site3593],10
6,ATGTCCTCAATGTTTACACACTCTTTTATATAAGTT [CACACA_site1460],10
7,CCCCATATAATGAACACACACACTCCTCATAATTAA [CACACA_site628],10.4
8,TGCTTATATATACGTGCACACATATATATAAGATAT [CACACA_site8516],9.75
9,CTGGAGGATGAAAAAAGTACAAAAGGAGGAAATGTA [XGTACX_site8846],9.44
10,AATATATGGTATAATTGTACAAAAAAAAAAAAAAAA [XGTACX_site1476],9.36
11,CTTTAACCTTTTTATTGTACTTTTAATATTTTAAAA [XGTACX_site4457],9.7
12,TCTTTAATGAACAAATGTACAAGAACAATACCCGCA [XGTACX_site2047],9.64
13,GTGAAATGGAAAAAAAGTACAGATTACATAAGTATT [XGTACX_site6355],9.56
14,TATTAATTTATATCAACACACAAAATCAATATACTT [CACACA_site1757],9.74
15,TTCTATATTTTAGCTGATAATATTATGAGCTTCACT [XGTACX_negctrl_site427],9.57
16,AACATAAATATATATAGTACATATATATATATTCAA [XGTACX_site7287],9.63
17,AAGGAATAATATAAAACACACACATAAATATAAATA [CACACA_site9115],11.4
18,ATATAGATCAGACACACACACATGTTTTAAAACTAT [CACACA_site6186],10.9
